# Reference: PubChem BioAssay AID504832 (National Center for Advancing Translational Sciences (NCATS), 2011)
# Hit rate of the full screen: of about 310,000 compounds, about 18,000 (5.8%) were called active. The inconclusive results got no clear call from the source; some entries with a clear call stand among them for comparison. Calls follow the shape of the dose curve; as a rule, active = well fitted inhibition curve with a large enough effect; inconclusive = small, poorly fitted or top-dose-only effect, or another doubt; inactive = no such curve, though single readings can be large or run the other way. Potencies of inconclusive entries are left out as doubtful fits.
# Test: Primary qHTS for delayed death inhibitors of the malarial parasite plastid, 48 hour incubation
# Settings: P. falciparum luciferase growth in erythrocytes; series mostly up to 28.7 µM; activity change, negative = inhibition: at the top concentration
# Procedure, shortened: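 Luminescence readout; reporter = integrated firefly luciferase in P. falciparum. RBC culture at 2% hematocrit, 0.1% parasitemia final, 37 C/5% CO2; decreased signal taken as growth inhibition.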
# % is scaled to controls: 0 for no effect and ±100 for the full control effect; potency is read from the fitted curve at half-maximal effect; tags tell the direction and shape of the fitted curve.
Structure (SMILES),"activity change, negative = inhibition",Potency
COc1ccc(CC(=O)NC(C)c2ccc3ccccc3c2)cc1 (stereo not drawn),inactive: 26.8%,
O=C(CCS(=O)(=O)Cc1ccccc1)Nc1nncs1,,"inconclusive [inhibitor, full curve]"
Cc1ccc(CN2CCSc3ccc(C(=O)NCCCN4CCOCC4)cc32)cc1,,"inconclusive [inhibitor, single point]"
CNC(=S)N(CCc1c(C)[nH]c2ccccc12)Cc1cccnc1,,"inconclusive [inhibitor, single point]"
COc1ccc(/C=C\c2cc(OC)c(OC)cc2CC[N+](C)(C)C)cc1OC,,"inconclusive [inhibitor, single point]"
COc1ccc(-c2nc(CSCC(=O)NC3CCN(Cc4ccccc4)CC3)c(C)o2)cc1OC,,"inconclusive [inhibitor, single point]"
CCc1cccc(NS(=O)(=O)c2c(C)n[nH]c2C)c1,,"inconclusive [inhibitor, partial curve, poor fit]"
O=C(c1ccco1)N1CCN(S(=O)(=O)c2ccc(S(=O)(=O)NC3CCCCC3)cc2)CC1,,"inconclusive [inhibitor, single point]"
COc1ccc(-c2nn(CCC(=O)O)cc2CCC(=O)O)cc1,inactive: 12.1%,
CCOC(=O)N1CCN(C(=O)CN(c2ccccc2OC)S(=O)(=O)c2ccc(C)cc2)CC1,,"inconclusive [inhibitor, partial curve, poor fit]"
COc1ccc(CC2(CO)CCN(Cc3cnn(-c4ccccc4OC)c3)CC2)cc1,,"inconclusive [inhibitor, partial curve]"
COc1cccc(CN2CCNC(=O)C2CC(=O)N(C)CC2CCOCC2)c1 (stereo not drawn),inactive: 5.71%,
O=C(NC1CCCCC1)N(Cc1nc2ccccc2c(=O)[nH]1)C1CCCC1,,"inconclusive [inhibitor, partial curve]"
Cc1cccc(Nc2ncnc3ccc(Br)cc23)c1,,"inconclusive [inhibitor, single point]"
CCOc1cc(N2CCOCC2)c(OCC)cc1NC(=O)c1cccc(N(C)C)c1,,"inconclusive [inhibitor, single point]"
O=C(NCc1ccccc1)C(c1ccncc1)N(C(=O)c1csnn1)c1cccc(F)c1 (stereo not drawn),inactive: -7.65%,
O=C1OC(N2C(=O)CC[C@H]2C(=O)Nc2ccc3c(c2)OCO3)c2ccccc21 (stereo partly drawn),inactive: 7.72%,
Cc1ccc(NC(=O)c2cnn(-c3ccccc3)c2NC(=O)c2ccco2)cc1C,inactive: 62.8%,
O=C(/C=C/c1cccs1)c1cc(Cl)ccc1OC(=O)N1CCOCC1,,active: 10.4 µM
CN1C/C(=C/c2cccnc2)C(=O)/C(=C/c2cccnc2)C1,,"inconclusive [inhibitor, single point]"
O=C1Nc2ccc(Br)cc2C1=Nc1cccnc1,,"inconclusive [inhibitor, single point]"
O=C(/C(C=Nc1ccc(Br)cc1)=C(/O)c1ccco1)C(F)(F)F,inactive: 228%,
Cc1ccc(NC(=S)NCCc2cnc[nH]2)cc1C,inactive: 2.34%,

Structure (SMILES),"activity change, negative = inhibition",Potency
CCN(CC)S(=O)(=O)c1cccc(C(=O)N/N=C(\C)c2ccc(O)cc2O)c1,inactive: 0%,
CC(C)CCNC(=O)c1ccc(C2SCC(=O)N2Cc2ccco2)cc1 (stereo not drawn),,"inconclusive [inhibitor, single point]"
COC(=O)C1=C(c2cccc(Cl)c2)C[C@@H]2CC[C@H]1N2C(=O)NCC1CC1,,"inconclusive [inhibitor, partial curve]"
O=C(O)c1nn(-c2cccc(Cl)c2)c(=O)cc1O,inactive: 2.52%,
CCc1ccc(-n2c(SCc3cc(=O)n4cc(Br)ccc4n3)nc3[nH]ncc3c2=O)cc1,,"inconclusive [inhibitor, partial curve]"
NCCCCCc1nnc(SCC(N)=O)o1,,"inconclusive [inhibitor, single point]"
Cc1ccc(C(=O)NC2CC3CCCC(C2)N3Cc2ccccc2)cc1 (stereo not drawn),,"inconclusive [inhibitor, partial curve, poor fit]"
COC(=O)c1ccc(Oc2c(C(F)(F)F)oc3c(CN4CCN(C)CC4)c(O)ccc3c2=O)cc1,,"inconclusive [inhibitor, partial curve]"
COCC(C)n1c(SCc2nc3ccccc3c(=O)[nH]2)nc2ccccc2c1=O (stereo not drawn),,"inconclusive [inhibitor, partial curve, poor fit]"
COc1ccc(N(C(=O)CNC(=O)c2ccco2)C(C(=O)NC2CCCC2)c2ccc(C)o2)cc1 (stereo not drawn),,"inconclusive [inhibitor, partial curve, poor fit]"
Cc1ccc(Cn2c(=N)c(C(=O)NCCN3CCOCC3)cc3c(=O)n4ccccc4nc32)cc1,,"inconclusive [inhibitor, full curve]"
CCCCN(C(=O)C1=COCCO1)c1c(N)n(CCC)c(=O)[nH]c1=O,,"inconclusive [inhibitor, single point]"
O=C(CCCn1c(SCC(=O)c2ccc(O)c(O)c2)nc2ccccc2c1=O)NCC1CCCO1 (stereo not drawn),,active: 9.28 µM
CCOC(=O)c1nc(NCc2ccccc2F)c2ccccc2n1,,"inconclusive [inhibitor, single point]"
CC(NC(=O)CN(Cc1ccccc1)S(=O)(=O)c1ccccc1)c1cccnc1 (stereo not drawn),,"inconclusive [inhibitor, single point]"
COc1ccc(S(=O)(=O)N2CCCCC2)cc1NC(=O)CNc1ccccc1C(C)=O,,"inconclusive [inhibitor, single point]"
CC(C)(CO)CNC1CCCN(C2Cc3ccccc3C2)C1 (stereo not drawn),inactive: 8.36%,
Cc1ccc(OCCN(C)C(=O)C2CCC(=O)N(CCCN3CCOCC3)C2)cc1 (stereo not drawn),,"inconclusive [inhibitor, full curve, poor fit]"
O=C(N=C1c2ccccc2CN1c1ccc(F)c(F)c1)c1cccnc1,,"inconclusive [inhibitor, single point]"
Cc1ccc(S(=O)(=O)N(CC(=O)NCCSCc2ccco2)c2ccc(F)cc2)cc1,,"inconclusive [inhibitor, single point]"
CCC(C)Sc1ccc([C@@H]2[C@@H]3C(=O)N(C)C(=O)[C@@H]3[C@]3(C(=O)OC)CCCCN23)cc1OC (stereo partly drawn),,"inconclusive [inhibitor, single point]"
Cc1onc(-c2ccccc2)c1C(=O)NCC1CCN(C(=O)c2c(-c3ccccc3)noc2C)CC1,,"inconclusive [inhibitor, single point]"
CN(c1ccccc1C(=O)Nc1ccc2c(c1)OCCO2)S(C)(=O)=O,,"inconclusive [inhibitor, single point]"

Structure (SMILES),"activity change, negative = inhibition",Potency
CCOc1ccccc1-n1c(CNc2ccc(F)cc2)nnc1SCC(=O)NCc1ccco1,,active: 11.7 µM
Cc1cccc(C)c1OCCCn1ccnc1,,"inconclusive [inhibitor, partial curve, poor fit]"
CCOc1nc(NCc2ccco2)nc(Nc2ccccc2F)n1,inactive: 129%,
CC(/C=C/c1ccc2c(c1)OCO2)=N/NC(=O)COc1ccc(C)cc1,inactive: 2.57%,
O=C(CCNC(=O)c1ccccc1Cl)Nc1ccc(Br)c(C(F)(F)F)c1,inactive: 26.6%,
O=C(NC(=S)Nc1cccc2cccnc12)c1ccccc1,inactive: 27%,
O=C(/C=C/c1ccc(N2CCCCC2)c([N+](=O)[O-])c1)c1ccc(O)cc1,,"inconclusive [inhibitor, single point]"
NC(=O)NOCc1cccc(Cl)c1,inactive: 4%,
COc1ccc(C(C)=O)cc1CSc1nnc(-c2ccncc2)o1,,"inconclusive [inhibitor, partial curve]"
Nc1cc(S(=O)(=O)Nc2ccc(Cl)cc2)ccc1N1CCOCC1,inactive: 13.1%,
CS(=O)(=O)NCCSc1nnnn1-c1ccccc1,inactive: 21.6%,
Cc1cc(C)c(S(=O)(=O)N2CCN(c3ccc([N+](=O)[O-])c(NCc4ccco4)c3)CC2)c(C)c1,,"inconclusive [inhibitor, full curve, poor fit]"
CCOC(=O)C1=C(C)N=c2s/c(=C/c3ccc(OCC(=O)O)cc3)c(=O)n2C1c1ccc(F)cc1 (stereo not drawn),,active: 3.29 µM
O=C(NCc1ccccc1)C1=C[C@H](c2coc3ccccc3c2=O)C[C@H](OCc2ccc(CO)cc2)O1,,"inconclusive [inhibitor, partial curve, poor fit]"
NS(=O)(=O)c1ccc(CCNCC(=O)NC2CC2)cc1,inactive: 32.9%,
Cc1nonc1NC(=O)OCCN1CCOC1=O,,"inconclusive [inhibitor, single point]"
CCOC(=O)[C@H]1[C@H]2COc3cc(OC)ccc3[C@@H]2N2C(=O)c3cc(F)c(F)cc3NC(=O)[C@@]12C,,"inconclusive [inhibitor, single point]"
O=[N+]([O-])c1cccc2c([As](=O)(O)O)cccc12,,active: 0.738 µM
Cc1ccc(C(=O)c2c(C)oc3c2C(=O)C(=O)c2ccccc2-3)cc1,,"inconclusive [inhibitor, partial curve, poor fit]"
Ic1ccc(N2CCN(Cc3c[nH]c4ncccc34)CC2)cc1,,"inconclusive [inhibitor, partial curve, poor fit]"
O=C(c1ccc(Cl)c(S(=O)(=O)N2CCCC2)c1)N1CCCCC1,inactive: -9.2%,
CCOC(=O)N1CCN(C(=O)CCc2ccc(S(=O)(=O)NCCc3ccccc3)cc2)CC1,,"inconclusive [inhibitor, partial curve]"
